Experimental data: publication PMC4336329 (PLoS ONE, 2015)
The whole screen tested about 310,000 compounds, of which about 2,200 (0.71%) showed an effect of 50% or more. Effects have a minus sign here. The list shows a part of the results.

The compounds below were run against human ether-à-go-go-related gene (hERG) potassium channel (human, UniProt Q12809) (assay: primary screen, population patch clamp on CHO cells stably expressing hERG).
Sequence of human ether-à-go-go-related gene (hERG) potassium channel (Q12809 whole entry, looked up): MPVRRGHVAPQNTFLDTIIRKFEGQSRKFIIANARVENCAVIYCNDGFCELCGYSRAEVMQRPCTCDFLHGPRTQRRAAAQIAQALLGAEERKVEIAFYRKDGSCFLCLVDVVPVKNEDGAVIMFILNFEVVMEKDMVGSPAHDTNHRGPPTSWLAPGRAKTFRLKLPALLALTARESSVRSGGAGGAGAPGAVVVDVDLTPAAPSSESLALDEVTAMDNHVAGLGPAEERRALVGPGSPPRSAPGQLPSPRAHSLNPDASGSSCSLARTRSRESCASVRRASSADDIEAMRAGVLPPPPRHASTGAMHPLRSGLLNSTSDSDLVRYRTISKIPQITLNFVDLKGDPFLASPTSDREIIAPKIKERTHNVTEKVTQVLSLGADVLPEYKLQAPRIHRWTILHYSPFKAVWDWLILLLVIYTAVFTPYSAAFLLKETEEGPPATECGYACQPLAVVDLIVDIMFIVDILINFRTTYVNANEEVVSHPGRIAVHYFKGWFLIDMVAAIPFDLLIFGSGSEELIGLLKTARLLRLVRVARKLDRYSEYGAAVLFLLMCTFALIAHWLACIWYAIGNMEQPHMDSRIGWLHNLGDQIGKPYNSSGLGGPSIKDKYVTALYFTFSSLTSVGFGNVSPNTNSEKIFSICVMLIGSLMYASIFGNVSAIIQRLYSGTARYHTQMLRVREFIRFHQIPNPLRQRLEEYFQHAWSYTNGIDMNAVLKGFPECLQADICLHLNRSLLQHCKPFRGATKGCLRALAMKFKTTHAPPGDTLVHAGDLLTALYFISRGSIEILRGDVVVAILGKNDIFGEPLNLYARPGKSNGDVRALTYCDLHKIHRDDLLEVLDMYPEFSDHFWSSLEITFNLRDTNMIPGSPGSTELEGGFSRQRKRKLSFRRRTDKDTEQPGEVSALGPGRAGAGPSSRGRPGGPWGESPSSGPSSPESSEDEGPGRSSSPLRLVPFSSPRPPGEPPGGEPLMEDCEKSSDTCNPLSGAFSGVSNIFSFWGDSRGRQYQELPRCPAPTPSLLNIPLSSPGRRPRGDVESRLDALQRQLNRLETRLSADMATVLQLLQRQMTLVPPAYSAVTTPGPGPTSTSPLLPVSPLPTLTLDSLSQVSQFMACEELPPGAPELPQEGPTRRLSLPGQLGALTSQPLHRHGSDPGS

SMILES | hERG current change (%, negative = inhibition) at 1uM [%]
CCOc1ccccc1NC(=O)NC1CCN(CC(=O)Nc2ccc3c(c2)OCCO3)CC1 | -2.36
Cn1c(=O)c2c(SCC(=O)N3CCCc4ccccc43)nc(CC(C)(C)C)nc2n(C)c1=O | -4.66
O=C(NC1CC1)c1c(O)c2ccccc2[nH]c1=O | 11.1
COC(=O)c1ccc(C2NC(=O)c3c(sc(C)c3C)N2)cc1 (stereo not shown) | 11.2
O=C(C(=O)N1CCN(Cc2ccccc2)CC1)c1c[nH]c2ccccc12 | 6.86
CCCCC(=O)NC(Nc1sc2c(c1C(N)=O)CCCC2)(C(=O)OCC)C(F)(F)F (stereo not shown) | 11.8
COc1cc(NC(=O)C(C)Oc2ccccc2)cc(OC)c1 (stereo not shown) | 8.32
CSCCC(NC(=O)c1ccccc1Cl)C(=O)NCCOc1ccccc1 (stereo not shown) | 13.1
CCOc1ccc(NC(=O)/C(C=Nc2ccccc2)=C(\C)O)cc1 | 14.6
COc1ccc(N2C(=O)[C@H]3[C@@H](C2=O)C2c4ccccc4C=NN2[C@H]3C(=O)C(C)(C)C)cc1 (stereo partly shown) | 12.5
Cc1nc2ccccc2n1CC(=O)c1ccccc1 | 9.12
Cn1c(Cc2ccc(Cl)cc2)nnc1SCC(=O)NC1CC1 | 0.064
COC(=O)c1ccccc1S(=O)(=O)N1CCC(NC(=O)c2ccccc2)CC1 | 12.1
Cc1ccc(CCc2nnc(SCC(=O)Nc3cccc(Cl)c3)n2-c2ccccc2)o1 | -18.3
NC1=NC[C@@H](Cc2ccc(O)cc2)N1CCc1cccc(F)c1 | 10.5
O=C(CCS(=O)(=O)c1cccc2nsnc12)N1CC(=O)N(CCc2ccccc2)C(=O)C1 | 3.13
Cc1ccc(Nc2nnc(C3C(=O)N(C)C4(C)CC3c3cc(Br)ccc3O4)s2)cc1 (stereo not shown) | 9.37
COc1cc2c(cc1OC)C(C)N(C(=O)Nc1ccccc1)CC2 (stereo not shown) | 11.3
Cc1cc(Cl)ccc1OCCCC(=O)N1CCN(S(=O)(=O)c2ccccc2)CC1 | 8.09
CCC(=O)N1c2ccc(S(=O)(=O)NCc3ccccc3)cc2CC1C (stereo not shown) | 11.8
CCCCCn1c(=O)c(-c2nc3ccccc3[nH]2)c(O)c2ccccc21 | 12.8
COc1ccc(C=O)c(OC)c1 | 10.6

SMILES | hERG current change (%, negative = inhibition) at 1uM [%]
COc1cccc(C(=O)CSc2nnc(-c3cc(OC)c(OC)c(OC)c3)o2)c1 | 10.2
Cc1ccc(S(=O)(=O)CNC(=S)c2cccc(Cl)c2)cc1 | 12.2
CCOC(=O)C1CCN(Cc2nnc(-c3cccc(Br)c3)o2)CC1 | 8.65
CCCCC(C(=O)NC1CCCC1)N(Cc1ccccc1)C(=O)c1snc(C(N)=O)c1N (stereo not shown) | 13.6
O=C(NC(=S)Nc1ccc(S(=O)(=O)Nc2ncccn2)cc1)c1ccc(Br)cc1 | 11
O=C(NNc1nccc(C(F)(F)F)n1)Nc1cccc(Cl)c1 | 9.72
COCCn1c(N)c(N(Cc2ccccc2)C(=O)COc2ccccc2F)c(=O)[nH]c1=O | 11.5
Cc1ccc(OCC(=O)N(C)CC(=O)Nc2ccccc2Cl)c([N+](=O)[O-])n1 | 5.77
CN(C)/C=N/c1nc(-c2ccc3c(c2)OCO3)cs1 | 7.92
CCSc1nc2ccccc2n1C(=O)/C=C\c1ccc(OC)c(OC)c1 | 5.43
FC(F)(F)c1nnc2ccc(N3CCN(c4ccccc4)CC3)nn12 | 11.3
CC(C)=CC(=O)OCC(=O)Nc1cccc([N+](=O)[O-])c1 | 8.68
CCC(C)[C@H](NC(=O)NC1CCCc2ccccc21)C(=O)O (stereo partly shown) | 15.5
CCCn1cc(SCC(N)=O)c2ccccc21 | 0.261
COCCSc1ccccc1C(=O)N1CCC(Cc2ccccc2)CC1 | 6.17
O=[N+]([O-])c1ccc(C=Nc2cccc3ccccc23)s1 | 7.76
COc1ccc(N2CCN(C(=O)c3ccccc3NS(=O)(=O)c3ccc(C)cc3)CC2)cc1 | 12
CCOc1ccc(CCNC(=O)Nc2ccccc2C)cc1OCC | 8.99
CC(O)CNCc1ccc(-c2ccccc2)cc1.Cl (stereo not shown) | 8.01
COc1ccc(/C=C(/NC(=O)c2ccc(C)cc2)C(=O)N2CCCC2)cc1OC | 2.88
COc1ccccc1NC(=O)/C=C/c1ccc2c(c1)OCO2 | 0.155
CCN(C(=O)COC(=O)CN(C)S(=O)(=O)c1ccc(NC(C)=O)cc1)C1CCS(=O)(=O)C1 (stereo not shown) | 16.8

SMILES | hERG current change (%, negative = inhibition) at 1uM [%]
CN(C)c1ccc(/C=C2\C(=N)N3N=C(CC(=O)N4CCCC4)SC3=NC2=O)cc1Br | 12.1
O=C(O)CCN1C(=O)C2C3c4ccccc4C(c4ccccc43)C2C1=O (stereo not shown) | 5.36
CCOC(=O)C1(C(F)(F)F)N=C(C(F)(F)F)Nc2ccc(F)cc21 (stereo not shown) | 3.69
O=C(Cn1c(=S)[nH]c2ccccc2c1=O)N1CCc2ccccc2C1 | 9.68
O=C1C2ON(c3ccccc3)C(c3cccnc3)C2C(=O)N1Cc1ccccc1 (stereo not shown) | -1.58
Cc1ccccc1NC(=O)Cn1nnc2ccccc21 | 8.89
CN(C(=O)/C=C/c1ccc2c(c1)OCO2)c1ccccc1 | 2.5
C#CCNC(=O)C1=C[C@H](c2csc3ccccc23)C[C@H](OCc2ccc(CO)cc2)O1 | 15.1
O=C(Cc1ccccc1[N+](=O)[O-])NNC(=O)Nc1ccc2c(c1)OCO2 | -0.266
C#CCOCCOCCOCCNc1nc(N2CCOCC2)nc(N2CCN(C(=O)[C@H](Cc3ccc(O)cc3)n3cc([C@@H](N)C(C)CC)nn3)CC2)n1.Cl (stereo partly shown) | 7.76
O=C(COC(=O)c1cccnc1Cl)c1ccc2c(c1)OCCO2 | 7.33
COc1ccccc1CNC(=O)[C@@H]1CCCN1S(=O)(=O)c1ccc(C)cc1 | 4.65
COc1c2c(cc3oc(=O)c4c5ccc(O)cc5oc4c13)OC(C)(C)CC2 | 17.1
CCOc1ccc2nc(NC(=O)C3CCCN(S(=O)(=O)c4cccc5nonc45)C3)sc2c1 (stereo not shown) | 4.37
Cc1ccc2c(c1)c(C)c(C)n2CC(O)Cn1nc(C)c(Br)c1C (stereo not shown) | 8.65
O=C(NNC(=O)c1ccc(Oc2ccc(C3SCCS3)cc2)o1)c1ccc(Cl)cc1 | 12.9
O=C1OC(N2C(=O)CC[C@H]2C(=O)Nc2ccc3c(c2)OCO3)c2ccccc21 (stereo partly shown) | 0.216
COC(=O)c1sc(NC(=O)c2cc(-c3ccccc3)nc3ccccc23)c(C#N)c1C | -6.75
CCCc1c(C(=O)N/N=C/c2cccc3ccccc23)nnn1-c1nonc1N | 10.7
CCOC(=O)C1CCN(C(=O)Cn2nc(CC)n3cccc3c2=O)CC1 | 12
CCOC(=O)/C=C/c1nc(C(=O)OCC)c(C)c(=O)[nH]1 | 20.1
CCC(C)N1C(=O)CCC1C(=O)NCCc1ccc(Cl)cc1 (stereo not shown) | 9.37

SMILES | hERG current change (%, negative = inhibition) at 1uM [%]
Cc1onc(-c2ccccc2)c1C(=O)NC(C)c1ccccc1 (stereo not shown) | 11.4
Cc1ccc(C)c(N2CC(O)(c3cccs3)[N+]3=C2CCCC3)c1.[Br-] (stereo not shown) | 6.03
CCOC(=O)C1(Cc2ccc(OC)cc2)CCN(C(=O)CCc2cccnc2)CC1 | 2.84
O=C(Cc1ccccc1)NCC(=O)OCC(=O)c1cccc([N+](=O)[O-])c1 | 7.87
CN1CCN(C(=O)C2=C[C@@H](C3CCCCC3)C[C@@H](OCCCCO)O2)CC1 | 6.72
Cc1ccc(CN(C(=O)c2ccco2)C(C(=O)NC2CCCC2)c2cccnc2)cc1 (stereo not shown) | 10.4
Cn1c(Cn2cnc(Cl)c2Cl)nc2ccccc21 | -2.96
CC(=O)Nc1cccc(NC(=O)c2cc(-c3cccnc3)nc3ccc(Cl)cc23)c1 | 5.96
COc1ccc(OC)c(NC(=O)COC(=O)/C=C/c2ccc(Cl)cc2)c1 | -1.76
COc1ccc(SC[C@H](Cc2ccccc2)N2CC[C@@H](C(C)(C)C)CCC2=O)cc1 | 16.5
COC(=O)CNC(=O)COC(=O)/C=C/c1cccs1 | 10.4
COc1c(C)cccc1C(=O)NC(=S)Nc1ccccc1N1CCCC1 | 18.6
CCc1ccc(NC(=O)C2CCN(S(=O)(=O)c3cccs3)CC2)cc1 | -30.6
CC(C)(C)NC(=O)C(c1ccccc1)N(C(=O)c1ccco1)C1CC1 (stereo not shown) | -1.51
O=C(COc1ccc(S(=O)(=O)N2CCCCC2)cc1)N1CCOCC1 | 10.3
CC(=O)N1CCN(C2=NC(=O)/C(=C/c3ccc(OS(=O)(=O)c4ccccc4)cc3)S2)CC1 | -3.09
O=C(CN1C(=O)NC(Cc2c[nH]c3ccccc23)C1=O)Nc1cccc(S(=O)(=O)N2CCCC2)c1 (stereo not shown) | 11.6
CC1Cc2ccccc2N1C(=O)c1cnsn1 (stereo not shown) | 13.6
CCCNC(=O)Cn1cnc2sc(C(=O)NCCN(CC)CC)c(C)c2c1=O | 6.25
